In the RNAGym collection of RNA variant scans (doi:10.1073/pnas.2313332121):
Variants at the background level are over-represented here.

B1: TPR 5TU (parent)
chain: GGAUCUUCUCGAUCUAACAAAAAAGACAAAUCUGCCACAAAGCUUGAGAGCAUCUUCGGAUGCAGAGGCGGCAGCCUUCGGUGGCGCGAUAGCGCCAACGUUCUCAACUAUGACACGCAAAACGCGUGCUCCGUUGAAUGGAGUUUAUCAUG

Variants of: B1
Experiment: polymerase ribozyme fitness, log enrichment relative to wild type (log ratio); higher = more active; in vitro selection for triplet polymerase activity
Procedure, shortened: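 In triplicate, a single round of in vitro selection was run on each mutant library, PCR-built and transcribed, covering one subunit of a heterodimeric triplet polymerase ribozyme. Frozen incubation at −7 °C followed annealing with a biotinylated primer, partner subunit and triplets, and extended constructs were then gel-excised, streptavidin-captured and taken through RT-PCR. Fitness is the logarithm of genotype enrichment over wild-type enrichment, from inverse-variance-weighted replicate averages of Illumina-sequenced inputs and outputs. […] only genotypes with ≥10 input reads and ≥1 read per output were kept.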

Row | Variant | polymerase ribozyme fitness (log ratio)
1 | G70A A97U | -3.59
2 | G70A A121G C125G | ≤ -4.2
3 | G70A C75G C93A | ≤ -4.2
4 | G70A C85A | ≤ -4.2
5 | G70A G83C A91G C95U | ≤ -4.2
6 | G70A G84U C116A | -4.13
7 | G70A G100A A121G U151A | ≤ -4.2
8 | G70A G100C | ≤ -4.2
9 | G70A G124U U135C A138U | ≤ -4.2
10 | G70A G141A | -3.46
11 | G70A U101C C103G C123U | ≤ -4.2
12 | G70C C75A U109G A137C | ≤ -4.2
13 | G70C C87A A115C | ≤ -4.2
14 | G70C C103G A120G U127C U134C | ≤ -4.2
15 | G70C C132G | ≤ -4.2
16 | G70C G80A U90C G133C | ≤ -4.2
17 | G70C G80C A142G | ≤ -4.2
18 | G70U A73U A89G C95G G141U | ≤ -4.2
19 | G70U A91U G92A C95U U135G A138G | ≤ -4.2
20 | G70U A119C | -2.09
21 | G70U A138G | ≤ -4.2

Row | Variant | polymerase ribozyme fitness (log ratio)
22 | G71A C85U C96A A107G C118A | ≤ -4.2
23 | G71A C85U G133A | ≤ -4.2
24 | G71A G74U G152U | ≤ -4.2
25 | G71A G80U C85U | ≤ -4.2
26 | G71A G84U A138C G141C | ≤ -4.2
27 | G71A G84U C132U | ≤ -4.2
28 | G71A U77C U151C | ≤ -4.2
29 | G71C A119G | -3.01
30 | G71C C76A G88A G94A A113G A119U C129U | ≤ -4.2
31 | G71C C87G C93A A107G C149U | ≤ -4.2
32 | G71C C87U C116U G136C C149U | ≤ -4.2
33 | G71C G92A | ≤ -4.2
34 | G71C G92U U151A | ≤ -4.2
35 | G71U A89U U135A | ≤ -4.2
36 | G71U C72A A91G C116A A138U | ≤ -4.2
37 | G71U G74C A120C | ≤ -4.2
38 | G71U G81C A89C | ≤ -4.2
39 | G71U G83U | -3.48
40 | G71U G84U U101C G117U C123U | -4.15
41 | G71U G141U | -3.55
42 | G71U U144G | -1.84

Row | Variant | polymerase ribozyme fitness (log ratio)
43 | C72A A97U C99A | ≤ -4.2
44 | C72A C85A | -3.85
45 | C72A C105U A110G | ≤ -4.2
46 | C72A C114A | ≤ -4.2
47 | C72A G88A A121U C132U A142U | ≤ -4.2
48 | C72A G140U | ≤ -4.2
49 | C72A G143A | ≤ -4.2
50 | C72A U78G C85U A97U G140C | ≤ -4.2
51 | C72A U104G A106U C131U U145C U146A | ≤ -4.2
52 | C72A U148A | ≤ -4.2
53 | C72G A89G G92A C114G | ≤ -4.2
54 | C72G C76A U82C C95U A107U A137G | ≤ -4.2
55 | C72G C76U U82G G94A C105G A137U | ≤ -4.2
56 | C72G C93A A115C | ≤ -4.2
57 | C72G C96A C105G | ≤ -4.2
58 | C72G C108U A137C | ≤ -4.2
59 | C72G G86C | ≤ -4.2
60 | C72G U77G G84A C114G | ≤ -4.2
61 | C72G U109G | ≤ -4.2
62 | C72U A73C A106C C125A C132A | ≤ -4.2
63 | C72U C76G G81A C87G | ≤ -4.2

Row | Variant | polymerase ribozyme fitness (log ratio)
64 | C72U C76G G88U U101G C125G | ≤ -4.2
65 | C72U C87A | ≤ -4.2
66 | C72U C93G U130C G133C | ≤ -4.2
67 | C72U C93U | -0.741
68 | C72U C95U C96U U146A | -2.06
69 | C72U C96G U127C C131U G140U U151A | ≤ -4.2
70 | C72U G128U | -3.1
71 | C72U U77A G141C | ≤ -4.2
72 | A73C C85G | ≤ -4.2
73 | A73C C96G C118U G143U | ≤ -4.2
74 | A73C C96U G141U | ≤ -4.2
75 | A73C G84U C93A U146G | ≤ -4.2
76 | A73G A97G | 0.222
77 | A73G A106C U111A U144A | ≤ -4.2
78 | A73G A110G G143A | ≤ -4.2
79 | A73G C75G U82C | ≤ -4.2
80 | A73G C85A C87A U101C A115G U130A C131A | ≤ -4.2
81 | A73G C85U U130G G141U | ≤ -4.2
82 | A73G C87G U146G | ≤ -4.2
83 | A73G C93A U146C | -2.15
84 | A73G C95U A122U C125U U127G A138G | ≤ -4.2
